{"source": "PubChem BioAssay AID686979", "about": "(National Center for Advancing Translational Sciences (NCATS), 2013)", "note": "“And” between values parts separate entries of the source, which are not always exact repeats. Equal values may be shown once. About 50,000 (12%) of roughly 420,000 compounds were called active. The inconclusive results got no clear call from the source; some entries with a clear call stand among them for comparison. The call rests on the fitted dose curve; in most records, active means well fitted inhibition curve with a large enough effect; inconclusive means small, poorly fitted or top-dose-only effect; inactive means flat fitted curve, though single readings scatter. Where the call is inconclusive, the potency comes from a doubtful curve fit. On the % scale 0 is the no-effect control and ±100 the full control effect; potency means the concentration at half of the fitted maximal effect; tags describe the fitted curve by direction and shape."}
{"assay": "qHTS for Inhibitors of human tyrosyl-DNA phosphodiesterase 1 (TDP1): qHTS in cells in presence of CPT; further: nearly all actives have a fitted effect of over 55% in size", "settings": "chicken DT40 Tdp1-/-;hTDP1 cells + 20 nM CPT, ATP luminescence, 48 h; activity change, negative = growth inhibition: at 46.2 µM (top of the series)", "procedure,_shortened": "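Chicken DT40 Tdp1-/- cells stably complemented with human TDP1 were seeded at 400 cells/well in medium containing 20 nM camptothecin, exposed to pin-transferred compounds, and grown at 37 °C for at least 48 hr. Viability was read as ATP luminescence.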"}
{"smiles": "O=C(CCCn1c(=O)c2sccc2n(CC(=O)NCc2ccco2)c1=O)NCc1ccco1", "activity change, negative = growth inhibition": "inactive: -2.43%"}
{"smiles": "CCCn1c(NC(=S)Nc2ccccc2)nc2ccccc21", "Potency": "inconclusive: 29.1 µM [inhibitor, single point]"}
{"smiles": "Cc1ccc(CNC(=O)C2CCN(C(=O)Nc3ccc(C)cc3)CC2)cc1", "Potency": "inconclusive: 29.1 µM [inhibitor, single point]"}
{"smiles": "COc1ccc(CCNC(=O)CN2C(=O)C(=O)N(C3CCCC3)C2=O)cc1OC", "activity change, negative = growth inhibition": "inactive: -9.41%"}
{"smiles": "CC(C)c1ccc(OCC(=O)NCC(c2ccc(Cl)cc2)N2CCOCC2)cc1", "note": "(configuration not stated)", "Potency": "inconclusive: 20.6 µM [inhibitor, single point]"}
{"smiles": "CCN1CCN(c2ccc(S(=O)(=O)N3CCCCC3)cc2NC(=O)/C=C/c2ccc(OC(F)F)cc2)CC1", "Potency": "inconclusive: 29.1 µM [inhibitor, single point]"}
{"smiles": "COc1ccccc1Cn1c(C)c(C(=O)NCc2ccc(C#N)cc2)sc1=O", "Potency": "inconclusive: 20.6 µM [inhibitor, single point]"}
{"smiles": "O=C(OCC(=O)c1ccccc1Cl)C1=NN(c2ccccc2)C(=O)CC1", "activity change, negative = growth inhibition": "inactive: 7.41%"}
{"smiles": "CCOC(=O)[C@@H](C)N(Cc1ccc(OC)cc1)S(=O)(=O)N(Cc1ccccc1)[C@H](C(=O)OC)C(C)C", "Potency": "inconclusive: 44.7 µM [inhibitor, partial curve, poor fit] and inconclusive: 29.1 µM [inhibitor, single point]"}
{"smiles": "Cc1ccccc1N1CCN(C2CCCN(C(=O)c3cn4c(C)cccc4n3)C2)CC1", "note": "(configuration not stated)", "Potency": "inconclusive: 18.4 µM [inhibitor, single point]"}
{"smiles": "CCCCCOC(=O)c1c(N)n(CCOC)c2nc3ccccc3nc12", "Potency": "inconclusive: 29.1 µM [inhibitor, single point]"}
{"smiles": "COC(=O)C1=CN(Cc2ccc(OC)cc2)C=C(C(=O)OC)C1c1cc(OC)c(OC)c(OC)c1", "Potency": "inconclusive: 29.1 µM [inhibitor, single point]"}
{"smiles": "C/C(CCC(C)C)=N\\Nc1ccc(S(N)(=O)=O)cc1[N+](=O)[O-]", "Potency": "inconclusive: 23.1 µM [inhibitor, single point]"}
{"smiles": "COc1cc2cc(CN(Cc3cccnc3)C(=O)Nc3ccccc3F)c(=O)[nH]c2cc1OC", "Potency": "inconclusive: 29.1 µM [inhibitor, single point]"}
{"smiles": "COc1cccc2sc(Nc3nc4ccc(NC(C)=O)cc4s3)nc12", "Potency": "inconclusive: 20.6 µM [inhibitor, single point]"}
{"smiles": "CCOc1ccccc1N1CCN(C(=O)CCNS(=O)(=O)c2ccccc2F)CC1", "activity change, negative = growth inhibition": "inactive: -28.6%"}
{"smiles": "Cc1ccc(NS(=O)(=O)c2ccc3c(c2)C(C(C)C)C(=O)N3)cc1C", "note": "(configuration not stated)", "Potency": "inconclusive: 25.9 µM [inhibitor, single point]"}
